# In patent US20240301046A1 (MABWELL THERAPEUTICS, published 2024):
# Read-outs that look alike come from different tables or passages of the source.
# Legend:
# [1] = target: HiLyte488 labelled Aβ1-42 protofibrils (UniProt P05067 partial chain, HiLyte488 fluorophore on part of the peptides (labelled and unlabelled Aβ1-42 monomers mixed 1:5)); assay: cell-based or functional assay
# [2] = target: T1, biotin-labelled Aβ1-40 monomer (AnaSpec, AS-61483-01) (UniProt P05067 partial chain, biotin label, position not stated); assay: capture ELISA, coated antibody, biotin-Aβ1-40 monomer
# T1 construct: domain: Aβ1-40; also called biotin-conjugated Aβ40 monomer; biotin-Aβ monomer
# Method: A 96-well plate was coated with 5 μg/mL of antibodies overnight at RT. The plate was then treated with diluents of biotin-labelled Aβ₁₋₄₀ monomers (AnaSpec, AS-61483-01, 4-fold serial dilutions with concentrations in the range of 0-1000 nM) for 1 h at RT. The binding of biotin-labelled Aβ₁₋₄₀ monomers with immobilized antibody was detected by HRP-conjugated streptavidin and TMB, as described in Example 2.
# [3] = target: T2, Aβ1-42 (rPeptide, A-1167-2) (UniProt P05067 partial chain); assay: direct ELISA, coated Aβ1-42
# T2 construct: domain: Aβ1-42; also called Abeta 1-42
# Method: (§1) Direct ELISA was used to test each antibody's affinity for Aβ₁₋₄₂ and pyroglutamate-modified Aβ (Aβₚ₃₋₄₂). Plates were coated with 0.5 μM of Aβ₁₋₄₂ (rPeptide, A-1167-2) or Aβₚ₃₋₄₂ (AnaSpec, AS-29907-01) for 2 h at 4° C. Diluents of antibodies (3-fold serial dilutions with concentrations in the range of 0-100 nM) were added to the plate for 1 h at RT. Binding of antibody to immobilized Aβ on each plate was detected by HRP-labeled secondary antibody and TMB substrate, as described in Example 2.
# Aβ1-42 protofibril = target: T3, Aβ1-42 protofibril (UniProt P05067 partial chain); assay: ratio of competitive ELISA IC50s, monomer as reference
# T3 construct: domain: Aβ1-42; soluble multimer of Aβ1-42; also called Aβ protofibril; Aβ protofibrils
# Description: The binding was detected by HRP-labeled secondary antibody and TMB substrate, as described in Example 2.
# [4] = target: T1, biotin-labelled Aβ1-40 monomer …; assay: capture ELISA, coated antibody, biotin-Aβ1-40 monomer; remark: listed apart in the source
# [5] = target: T2, Aβ1-42 (rPeptide, A-1167-2); assay: direct ELISA, coated Aβ1-42; remark: listed apart in the source
# [6] = target: T4, pyroglutamate-modified Aβ (Aβp3-42) (AnaSpec, AS-29907-01) (UniProt P05067 partial chain, pyroglutamate at Aβ position 3 (the N-terminus)); assay: direct ELISA, coated Aβp3-42
# T4 construct: domain: Aβp3-42; also called Abeta p3-42
# Method: as §1
# [7] = target: T4, pyroglutamate-modified Aβ (Aβp3-42) …; assay: direct ELISA, coated Aβp3-42; remark: listed apart in the source
# [8] = target: T2, Aβ1-42 (rPeptide, A-1167-2); assay: direct ELISA, coated Aβ1-42; remark: listed apart in the source
Binder,ADCP (RFU) [1],EC50 [2],EC50 [3],ratio of IC50 monomer to IC50 protofibril (Aβ1-42 protofibril),EC50 [4],EC50 [5],EC50 [6],EC50 [7],EC50 [8]
"21K12A (antibody, V domains shown) VH: [letters of about 100 residues with changes not shown]GYGEGYWGQGTLVTVSS VL: QSVLTQPPSASGTPGQRVTISCSGSSSNIKSNTVNWYQQLPGTAPKLLIYRNNQRPSGVPDRFSGSKSGTSASLAISGLQSEDEADYYCAAWDDSLKGVVFGGGTDLTVL",524000 RFU,0.87 nM,0.037 nM,,,,,,
"06E17A (mIgG1) (antibody, V domains shown, chimeric: fully human F(ab')2, mouse IgG1 CH2-CH3; also called Chimeric mouse 06E17A (mlgG1)) VH: [letters of about 100 residues with changes not shown]GYGEGYWGQGTLVTVSS VL: QSVLTQPPSASGTPGQRVTISCSGSSSNIKSNTVNWYQQLPGTAPKLLIYRNNQRPSGVPDRFSGSKSGTSASLAISGLQSEDEADYYCAAWDDSLKGVVFGGGTDLTVL",301000 RFU,0.02 nM,0.052 nM,> 300 fold,0.02 nM,0.052 nM,> 50 nM,,< 0.1 nM

# Now from value to binder:
ADCP (RFU) [1],EC50 [2],EC50 [3],ratio of IC50 monomer to IC50 protofibril (Aβ1-42 protofibril),EC50 [4],EC50 [5],EC50 [6],EC50 [7],EC50 [8],Binder
547000 RFU,1.05 nM,0.035 nM,> 300 fold,1 nM,0.035 nM,> 50 nM,51.2 nM,< 0.1 nM,"22D04A (mIgG1) (antibody, V domains shown, chimeric: fully human F(ab')2, mouse IgG1 CH2-CH3; also called 22D4A; Chimeric mouse 22D04A (mlgG1)) VH: [letters of about 100 residues with changes not shown]GYGEGYWGQGTLVTVSS VL: QSVLTQPPSASGTPGQRVTISCSGSSSNIKSNTVNWYQQLPGTAPKLLIYRNNQRPSGVPDRFSGSKSGTSASLAISGLQSEDEADYYCAAWDDSLKGVVFGGGTDLTVL"
,,,,0.15 nM,0.062 nM,,321 nM,,"06E17A(hIgG1) (antibody, V domains shown, fully human IgG1 lambda, expressed in CHO cells; its lambda constant region is not tied to a number; also called Fully human 06E17A) VH: [letters of about 100 residues with changes not shown]GYGEGYWGQGTLVTVSS VL: QSVLTQPPSASGTPGQRVTISCSGSSSNIKSNTVNWYQQLPGTAPKLLIYRNNQRPSGVPDRFSGSKSGTSASLAISGLQSEDEADYYCAAWDDSLKGVVFGGGTDLTVL"
502000 RFU,1.18 nM,,,,,,,,"21P22A (antibody, V domains shown) VH: not shown VL: QSVLTQPPSASGTPGQRVTISCSGSSSNIKSNTVNWYQQLPGTAPKLLIYRNNQRPSGVPDRFSGSKSGTSASLAISGLQSEDEADYYCAAWDDSLKGVVFGGGTDLTVL"
,,,,0.2 nM,0.065 nM,,18.5 nM,,"22D04A(hIgG1) (antibody, V domains shown, fully human IgG1 lambda, expressed in CHO cells; also called Fully human 22D04A) VH: [letters of about 100 residues not shown]GYGEGYWGQGTLVTVSS VL: QSVLTQPPSASGTPGQRVTISCSGSSSNIKSNTVNWYQQLPGTAPKLLIYRNNQRPSGVPDRFSGSKSGTSASLAISGLQSEDEADYYCAAWDDSLKGVVFGGGTDLTVLG"
